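Assay format: 96-well plates, 48-hour exposure. Here, GI50 denotes the concentration required for 50% inhibition of growth. TGI: total growth inhibition.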

The text below walks through data of PubChem BioAssay (NCI).

This assay deals with NCI-H322M lung. As to the kind of experiment: NCI-60 cell line screen, 48 h.

For `COc1cccc(N2CCN(C3=C(Cl)C(=O)c4ncccc4C3=O)CC2)c1`, the GI50 is 15.3 µM and the TGI is 29.1 µM.

In the case of `O=S(=O)(Nc1ccc(-c2nc(-c3cccc(O)c3)c(-c3ccnc(Br)c3)[nH]2)cc1)c1ccccc1`, the GI50 was 2.9 µM and the TGI was found to be 10.6 µM.

Regarding `CCN(CC)CCN1C(=O)c2c(c3c4cc(Br)ccc4[nH]c3c3ccc4ccccc4c23)C1=O`, the GI50 is 1.54 µM and the TGI is 2.95 µM.
